Experimental data as given in the supplement of paper PMC4723716.
Whole data set: some 3,600 compounds, median “viability index relative to DMSO control” near 0.81, cut for the lowest 2% near 0.13. This is one part of the list.

tested on: Plasmodium falciparum NF54 stage V gametocytes; assay: viability index relative to DMSO control (fraction); higher = less gametocyte killing; details: 1.25 µM, incubation time: 72 h
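Further: 384-well serum-free SaLSSA: MitoTracker Red CMXRos staining with saponin lysis, high-content imaging, treated-well particle count divided by plate-mean count of DMSO wells.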

Row | SMILES | viability index
1 | CCc1ccc(C(Nc2cc(C)ccn2)c2ccc3cccnc3c2O)cc1 (stereo not given) | 0.741
2 | O=C1c2cccc(N3CCN(Cc4cccn4-c4nccs4)CC3)c2C(=O)N1Cc1ccc(Cl)cc1 | 1.06
3 | O=C1CSC(=S)N1c1cccc(Cl)c1 | 0.88
4 | COc1ccc(C2CC(=O)C3=C(C2)NC(C)=C(C(=O)OC2CCCCC2)C3c2ccc([N+](=O)[O-])cc2)cc1OC (stereo not given) | 0.761
5 | OC1=C2C(=Nc3ccccc3SC2c2ccco2)c2ccccc21 (stereo not given) | 0.584
6 | CCCCN(CCCC)CCCNc1ncnc2c1[nH]c1ccc(Cl)cc12 | 0.919
7 | Cc1ccc(C=NNC(=O)c2nnn(-c3nonc3N)c2-c2ccc([N+](=O)[O-])cc2)cc1 | 0.623
8 | CCCOC(=O)C1=C(C)NC2=C(C(=O)CC(c3ccc(OC)c(OC)c3)C2)C1c1ccccc1F (stereo not given) | 0.564
9 | CC(=O)N(C)C1=C(N2CCCCCC2)C(=O)c2ccccc2C1=O | 0.39
10 | Cc1ccc(CN2CCC(O)(c3ccc4oc(C(=O)NCCc5cccc(F)c5)cc4c3)CC2)cc1 | 1.25
11 | CCOC(=O)C1=C(C)NC2=C(C(=O)CC(c3ccc(OC)cc3)C2)C1c1ccccc1F (stereo not given) | 1.03
12 | O=C(Cc1ccccc1)N1CCOc2c(cc(-c3csc4ccccc34)cc2OCCc2ccccn2)C1 | 0.385
13 | COc1ccc(CNc2cc(-c3ccc(F)c(F)c3)nc3ccnn23)cc1 | 1.08
14 | CC(C)(C)c1ccc(C(=O)C[n+]2cc(-c3ccccc3)n3c2CCC3)cc1 | 0.852
15 | Cc1cccc(OC(C)C(=O)N2CCc3ccccc32)c1 (stereo not given) | 1.13
16 | CCOC(=O)C1=C(c2ccccc2)N=c2sc(=Cc3c(C)n(Cc4ccc(F)cc4)c4ccccc34)c(=O)n2C1c1cccc(OC)c1OC (stereo not given) | 0.822
17 | CCCOC(=O)C1=C(C)NC2=C(C(=O)CC(c3ccc(OC)c(OC)c3)C2)C1c1ccc(O)c(OCC)c1 (stereo not given) | 0.821
18 | CCOC(=O)c1c(NC(=O)Cc2ccc([N+](=O)[O-])cc2)sc2c1CCCC2 | 1.02
19 | CCC(=O)N(C1=C(NC)C(=O)c2ccccc2C1=O)C(C)C | 0.601
20 | C[n+]1ccc(C=Cc2ccccc2F)c2ccccc21 | 0.911
21 | COC(=O)C1=C(C)NC2=C(C(=O)CC(c3ccc(OC)c(OC)c3)C2)C1c1ccccc1C (stereo not given) | 0.653
22 | N#C/C(=C\c1cc2ccccc2nc1Cl)c1nc(-c2ccc(Cl)c(Cl)c2)cs1 | 1.01
23 | CCOC(=O)C1=C(c2ccccc2)N=c2sc(=Cc3cc(C)n(-c4ccc(F)cc4)c3C)c(=O)n2C1c1cccc(OC)c1OC (stereo not given) | 0.698

Row | SMILES | viability index
24 | CC(C)OC(=O)c1cccnc1SCC(=O)Nc1ccc(C(F)(F)F)cc1Cl | 1.36
25 | COc1ccccc1NC1=CC(=NS(=O)(=O)c2ccccc2)c2ccccc2C1=O | 0.247
26 | Cc1ccc(C)c(S(=O)(=O)N=C2C=C(SCC(=O)O)C(=O)c3ccccc32)c1 | 0.861
27 | O=C(CNC(=O)c1ccccc1)Oc1ccc(Cl)cc1 | 0.779
28 | CCC(Sc1nc2ccccc2n1C(C)=O)C(=O)NC1=NN=C(c2ccc(Br)cc2)CS1 (stereo not given) | 0.928
29 | CCc1ccc2[nH]c(=O)c(CN(Cc3ccc(OC)cc3)C(=S)NCCCN(CC)CC)cc2c1 | 0.753
30 | C=CCN1C(=O)/C(=C\c2ccccc2)C(C(=O)OC)=C1C | 0.521
31 | CN(C)CCNc1cc(-c2ccc3ccccc3c2)nc2ccccc12 | 0.0331
32 | COc1cccc(N2C(N)=NC(N)=NC2(C)C)c1 | 1.02
33 | C=C(C)C(=O)OCCc1ccc(O)c(-n2nc3ccccc3n2)c1 | 0.751
34 | O=C(c1ccc([N+](=O)[O-])cc1[N+](=O)[O-])N1CCCCC1 | 1.06
35 | COc1ccc2nc(C)cc(Nc3ccc(Br)cc3)c2c1 | 0.978
36 | O=C(c1cccc(Cl)c1)N1CCN(c2ccc([N+](=O)[O-])c(NC3CC3)c2)CC1 | 0.598
37 | CCN(CC)CCCNc1ccnc2cc3ccccc3cc12 | 0.789
38 | COc1ccc(-n2nc(C(C)(C)C)cc2NC(=O)CN(C(=O)c2ccc(C(C)(C)C)cc2)C(C)C)cc1 | 0.853
39 | CCOC(=O)c1cnc2c(C)cc(C)cc2c1Nc1ccc(C(C)=O)cc1 | 0.693
40 | Cc1ccc(Nc2cc(C)nc(NCc3ccccc3)n2)cc1 | 0.457
41 | Cc1cccc(NC(=O)c2ccc(NCCCC3CCCCCC3)c([N+](=O)[O-])c2)c1 | 1.18
42 | COc1ccc(C2=C(c3ccc(OC)cc3)C3(c4ccccc4)C(=O)C2(c2ccccc2)C2C(=O)N(c4cc(Cl)ccc4C)C(=O)C23)cc1 (stereo not given) | 0.574
43 | CN(C)CCNc1ncnc2c1[nH]c1ccc(Cl)cc12 | 0.874
44 | Cc1ccccc1OCC(O)Cn1c(NC2CCCCC2)nc2c1c(=O)[nH]c(=O)n2C (stereo not given) | 0.932
45 | CCc1ccc2[nH]c(=O)c(CN(CCCN(CC)CC)C(=S)NCCCN(C)C)cc2c1 | 0.875
46 | O=C(c1ccc2nc(N3CCCCC3)sc2c1)N1CCN(Cc2ccccc2)CC1 | 0.614

Row | SMILES | viability index
47 | S=P(OCC1C(COP(=S)(c2ccccc2)c2ccccc2)C1(Cl)Cl)(c1ccccc1)c1ccccc1 (stereo not given) | 0.562
48 | CCOC(=O)C1=C(C)NC2=C(C(=O)C(C(=O)OCC)C(c3cccc(OC)c3)C2)C1c1ccc([N+](=O)[O-])cc1 (stereo not given) | 0.332
49 | CC(C)(C)c1ccc2[nH]c3c(c2c1)CCCC3=NO | 0.992
50 | CCCNC(=O)c1cc(NC(=O)c2cc(C(F)(F)F)cc(C(F)(F)F)c2)ccc1N1CCCCC1 | 0.847
51 | CCN(CC)c1ccc(N=Cc2ccc(Sc3nc4ccccc4s3)o2)cc1 | 1.17
52 | Oc1ccccc1Nc1nc(NC2CCCC2)c2ccccc2n1 | 0.724
53 | Cc1ccc2[nH]c3c(NCCN4CCCCC4)ncnc3c2c1 | 0.587
54 | O=[N+]([O-])c1cccc(-c2ccc(C=NNc3nc4ccccc4[nH]3)o2)c1 | 1.15
55 | O=C1CC(c2ccccc2)CC2=C1C(c1cccc(Cl)c1Cl)Nc1ccccc1N2 (stereo not given) | 0.842
56 | CCNC(=O)NCCSc1nc(-c2ccccc2)c(-c2ccccc2)n1CC | 0.899
57 | CN(C)CCCNc1ncnc2c1[nH]c1ccc(Br)cc12 | 0.682
58 | Nc1nonc1-n1nnc(C(=O)NN=Cc2ccc(F)c(Br)c2)c1-c1ccc([N+](=O)[O-])cc1 | 0.95
59 | CC(C)CNCc1cc(-c2ccc(F)cc2)ccc1O | 0.519
60 | CCC(C)NC(=O)CSc1nnc(-c2cccnc2)n1-c1ccc(Cl)cc1 (stereo not given) | 0.71
61 | CCCCCCCn1c(=N)n(CC(O)c2ccc(Cl)c(Cl)c2)c2ccccc21 (stereo not given) | 0.358
62 | Cc1cc(Nc2cccc(F)c2)nc(NCc2ccccc2)n1 | 0.68
63 | CCc1ccccc1N1C(=O)CN(Cc2ccccc2)C1=S | 1.24
64 | Cc1nc(C23CC4CC(CC(C4)C2)C3)cs1 | 0.871
65 | COc1ccc(-c2cc(C(F)(F)F)n3ncc(C(=O)Nc4cc(C)ccc4O)c3n2)cc1OC | 0.706
66 | COc1ccc(OC)c(-c2ccc(O)c(CN3CCC(c4ccccc4)CC3)c2)c1 | 0.587
67 | CC(=O)Nc1nc(-c2ccc(F)cc2)cs1 | 1.07
68 | CCOC(=O)c1ccc(NC(=O)c2cc(-c3ccccc3)nc3ccc(C)cc23)cc1 | 0.804
69 | CCOc1ccc2c(c1)sc(=NC(=O)Nc1ccc(OC)cc1)n2C | 0.76

Row | SMILES | viability index
70 | O=C(C1Cc2ccccc2CN1S(=O)(=O)c1ccc(F)cc1)N1CCOCC1 (stereo not given) | 1.2
71 | Cc1cccc(N(C)c2nc3ccccc3c3nnc(C)n23)c1 | 0.859
72 | CC[n+]1c(C=C2C=CN(C)C=C2)ccc2cc(C)ccc21 | 0.743
73 | O=C(Nc1cccnc1)c1cc(-c2cccnc2)nc2ccc(Br)cc12 | 0.841
74 | CCCCCCCSc1nsc(NC(=O)CCC)n1 | 0.885
75 | Cc1cc(Nc2ccc([N+](=O)[O-])cc2O)nc2ccccc12 | 0.751
76 | CC1=NOC(=O)C1=Cc1ccc(-c2ccc([N+](=O)[O-])cc2)o1 | 0.628
77 | CC(C)(C)c1ccc(Oc2ccc(N3C(=O)C4CC=CCC4C3=O)cc2)cc1 (stereo not given) | 1.24
78 | COc1cccc(C2C(C(=O)Nc3ccc(C)cc3C)=C(C)Nc3c(C(=O)Nc4ccccc4)cnn32)c1 (stereo not given) | 0.418
79 | CC(C=NNC(=O)c1ccco1)=Cc1ccccc1 | 0.876
80 | CCOc1ccc2[nH]c3c(NCCCN(C)C)ncnc3c2c1 | 0.901
81 | C=CCC(=O)NC1CCN(CC(O)CN(Cc2ccccc2)S(=O)(=O)c2ccccc2)C1 (stereo not given) | 0.667
82 | CCc1ccc(NC(=O)c2sc3nc(N)c(C#N)c(-c4ccc(OC)c(OC)c4)c3c2N)cc1 | 0.913
83 | O=C(CCl)Nc1ccc(CN2CCCCC2)cc1 | 0.239
84 | O=C1CCC(=O)N1c1ccc(CSc2nc3ccccc3[nH]2)cc1 | 0.914
85 | O=C(Nc1ccccc1Cl)c1cc2ccccc2cc1O | 0.707
86 | O=C(CSc1nc2ccccc2[nH]1)Nc1ccc2c(c1)OCO2 | 0.966
87 | Cc1oc2c(c1C(=O)N1CCN(C)CC1)C(=O)c1ccccc1C2=O | 0.43
88 | O=C(Nc1ccc(O)cc1)c1cccc(S(=O)(=O)N2CCCCC2)c1 | 1.03
89 | CCOC(=O)C1=C(C)NC2=C(C(=O)CC(c3ccc(OC)cc3)C2)C1c1cccc(F)c1 (stereo not given) | 0.525
90 | Cc1cc(C)c2nc(SCC(=O)Nc3ccc4c(c3)OCCO4)cc(C)c2c1 | 1.15
